According to PubChem BioAssay AID1347120 (National Center for Advancing Translational Sciences (NCATS), 2019):
Out of some 390,000 compounds screened, about 930 (0.24%) were called active. This list was built around the results that the source calls inconclusive (neither active nor inactive); the mix of calls is not that of the screen. Calls follow the shape of the dose curve; as a rule, active = well fitted activation curve with a large enough effect; inconclusive = small, poorly fitted or top-dose-only effect; inactive = no such curve, though single readings can be large or run the other way. Potencies beside an inconclusive call are fits to weak or partial responses and may not hold up.
Potency is read from the fitted curve at half-maximal effect; tags tell the direction and shape of the fitted curve.

Experiment: qHTS for Suppressors of FUS Proteinopathy: Primary screen using FUS-linked yeast assay; also: nearly all actives have a fitted effect of over 55% in size;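 as to growth rescue (activation): plate controls were DMSO vehicle for no effect and reference control for full effect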
Conditions: S. cerevisiae FUS-expressing, OD600, 24 h; Potency: growth rescue; growth rescue (activation): at 76.6 µM (top of the series)
Summary of the method: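 Yeast FUS proteinopathy model; galactose-induced FUS (2%), starting OD 0.005. Cpds in dilution series, 24hr, 30C, 99% humidity. Abs 600 nm growth. Pos ctrl CP55940 (top 92uM final); neg ctrl DMSO.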
With `COc1ccc(OCC(O)CN2CCNCC2)cc1` (stereo not drawn) the Potency was “inactive”. In the case of `Cc1nc(S(=O)(=O)N(C)c2ccccc2)c(C#N)c(C)c1Cl`, the growth rescue (activation) is reported as inconclusive: 50.2% [activator]. In the case of `CC(C)(C)c1ccc(OCc2ccc(C(=O)Nc3cccnc3)o2)cc1`, the Potency is reported as inconclusive: 22.4 µM [activator, partial curve]. In the case of `O=C(Nc1cc(-c2nc3cc(Cl)ccc3o2)ccc1Cl)c1cccc2ccccc12`, the Potency is reported as “inactive”. With `COc1ccc(CN2C(=O)C(CC(=O)NCCCCc3ccccc3)CC(C(=O)N(C(C)C)C(C)C)=C2C)cc1` (stereo not drawn) the Potency was inconclusive: 28.2 µM [activator, single point]. In the case of `CC(=O)N1CCN(c2cc(N3CCc4ccccc4C3)c(F)cc2[N+](=O)[O-])CC1`, the Potency is reported as inconclusive: 50.1 µM [activator, single point]. For `O=C(c1ccc(Nc2nc3ccccc3n3nnnc23)cc1)N1CCN(c2ccc(F)cc2)CC1`, the Potency was “inactive”. With `COc1ccc(C2c3c(n(C)c4ccccc34)C(=O)N2CC(=O)Nc2ccccc2Cl)cc1` (stereo not drawn) the Potency was inconclusive: 28.2 µM [activator, single point]. For `O=C(c1ccc(CS(=O)(=O)c2ccc(Br)cc2)o1)N1CCN(c2ncccn2)CC1`, the Potency was “inactive”. With `Cc1c(NC(=O)C(C)OC(=O)COc2ccc(C#N)cc2)c(=O)n(-c2ccccc2)n1C` (stereo not drawn) the Potency was “inactive”. In the case of `CCCN(C(=O)c1cc2c(=O)n(CC)c3ccccc3c2s1)c1ccccc1F`, the Potency is reported as “inactive”. With `O=[N+]([O-])c1ccccc1/C=C/C=N/n1c(-c2cc(-c3ccccc3)n[nH]2)n[nH]c1=S` the Potency was inconclusive: 25.1 µM [activator, partial curve]. In the case of `Cc1cc(C)cc(N(C(=O)c2csnn2)C(C(=O)NC2CCCCC2)c2ccccn2)c1` (stereo not drawn), the Potency is reported as inconclusive: 28.2 µM [activator, single point]. In the case of `Fc1ccc([C@@H]2Nc3ccccc3[C@@H]3C=CC[C@@H]32)cc1`, the Potency is reported as “inactive”. In the case of `CCn1c(C)nc2cc(C(=O)NNC(=S)Nc3ccc(OC)cc3)ccc21`, the Potency is reported as “inactive”. With `CCOc1ccc(-n2cc(-c3ccccc3)c3c(NCc4ccc(F)cc4)ncnc32)cc1` the Potency was “inactive”. With `C=CCn1c(SCC(=O)NC2CCCC2)nc2scc(-c3ccco3)c2c1=O` the Potency was inconclusive: 20 µM [activator, partial curve, poor fit]. In the case of `O=C(c1ccco1)N1CCN(CCOCCOc2cccc3ccccc23)CC1`, the Potency is reported as “inactive”. For `CC[C@]12c3[nH]c4cc(-c5ccco5)ccc4c3CCN1C(=O)[C@@H](CC(=O)NC(C)(C)C)C[C@@H]2C(=O)N1CCN(C(=O)c2ccco2)CC1`, the Potency was inconclusive: 50.1 µM [activator, single point]. For `COc1ccc(-c2c/c(=N\c3nc(-c4ccccc4)c(C)s3)c3ccccc3o2)cc1O`, the Potency was inconclusive: 35.5 µM [activator, partial curve]. For `CCOc1ccc(N=C2NC(=O)S/C2=C\c2ccc(Cl)cc2)cc1`, the growth rescue (activation) was inconclusive: 39.3% [activator]. With `CCc1ccc2[nH]c(=O)c(CN(Cc3ccc(F)cc3)C(c3nnnn3CCN3CCOCC3)C(C)C)cc2c1` (stereo not drawn) the Potency was inconclusive: 50.1 µM [activator, partial curve, poor fit]. With `CC(=O)c1c(C)[nH]c(C(=O)CSc2nnc(-c3cccs3)n2Cc2ccccc2)c1C` the Potency was inconclusive: 20 µM [activator, partial curve, poor fit]. With `COc1ccccc1CNC(=O)c1ccc(CSc2nc3ccncc3n2Cc2ccccc2C)cc1` the Potency was inconclusive: 20 µM [activator, partial curve]. In the case of `O=C(NC1CCCCC1)C(c1ccc(C(F)(F)F)cc1)n1c(=O)c(-c2ccccc2)nc2ccccc21` (stereo not drawn), the Potency is reported as inconclusive: 11.2 µM [activator, partial curve]. In the case of `COC(=O)c1sccc1NC(=O)Cn1cnc2c1c(=O)n(C)c(=O)n2C`, the Potency is reported as inconclusive: 5.62 µM [activator, single point]. For `CCn1c(COc2ccc(Cl)cc2)nnc1SCc1ccc(C#N)cc1`, the Potency was inconclusive: 35.5 µM [activator, single point]. In the case of `CCN(CC)C(=O)CSc1nc2c(sc(=S)n2-c2ccccc2)c(=O)n1-c1ccccc1OC`, the Potency is reported as inconclusive: 50.1 µM [activator, single point]. For `COc1ccccc1Nc1c2c(nc3ccc(NC(=O)/C=C/c4cc(OC)c(OC)c(OC)c4)cc13)CCCC2`, the Potency was inconclusive: 28.2 µM [activator, partial curve, poor fit]. For `O=C(COC(=O)CCS(=O)(=O)c1ccccc1)Nc1cc(S(=O)(=O)N2CCCCC2)ccc1Cl`, the Potency was inconclusive: 31.6 µM [activator, single point]. For `Cc1ccc2oc(=O)c3cc(C(=O)Nc4cccc(C#N)c4)sc3c2c1`, the Potency was “inactive”. For `Cc1ccc(-n2nc3c(N4CCC(C(=O)NCCC(C)C)CC4)nnc(C)c3c2C)cc1`, the Potency was “inactive”. In the case of `CCC(CO)Nc1cccc2c1S(=O)(=O)N(Cc1cn(Cc3cccc(F)c3)nn1)Cc1ccccc1O2` (stereo not drawn), the Potency is reported as inconclusive: 31.6 µM [activator, single point]. For `CCOc1ccc(CCN2C(=S)N([C@@H](Cc3ccc(O)cc3)CN3CCC[C@@H]3CN3C(=S)NC[C@@H]3CC(C)C)C[C@@H]2Cc2ccccc2)cc1`, the Potency was inconclusive: 28.2 µM [activator, partial curve, poor fit]. In the case of `CCn1cc2nc(SCc3cccc(F)c3)n(CCc3ccccc3)c(=O)c2n1`, the Potency is reported as inconclusive: 35.5 µM [activator, single point]. In the case of `CC(C)CCNC(=O)c1ccc2c(c1)N(C)C(=O)c1ccccc1S2`, the Potency is reported as inconclusive: 22.4 µM [activator, partial curve, poor fit]. For `CCc1ccc(/C=C2\C(=N)N3N=C(CC(=O)N4CCCCC4)SC3=NC2=O)cc1`, the Potency was inconclusive: 8.91 µM [activator, partial curve]. In the case of `COC(=O)[C@H](Cc1ccccc1)N(C)S(=O)(=O)c1cccc(S(=O)(=O)N(C)[C@@H](Cc2ccccc2)C(=O)OC)c1`, the Potency is reported as inconclusive: 20 µM [activator, partial curve]. For `CSc1cccc(NC(=O)CN(C)S(=O)(=O)c2ccc3c(c2)CCCN3C(C)=O)c1`, the Potency was “inactive”. For `CCCOc1cccc(C2c3c(oc4cc(C)c(C)cc4c3=O)C(=O)N2CCCN2CCOCC2)c1` (stereo not drawn), the Potency was inconclusive: 10 µM [activator, partial curve, poor fit]. In the case of `COCc1cc(C)n(CC(=O)Nc2cccc(C(C)=O)c2)c(=O)c1C#N`, the Potency is reported as “inactive”. For `Cc1ccc(-c2n[nH]c3c2C(c2cccs2)N(c2ccc(Cl)cc2)C3=O)cc1` (stereo not drawn), the Potency was inconclusive: 31.6 µM [activator, partial curve, poor fit]. For `O=C(CCn1nnc2ccccc21)N1CCN(Cc2ccc3c(c2)OCO3)CC1`, the Potency was “inactive”. With `CCN1CCN(Cc2coc3ccc(C)cc3c2=O)CC1` the Potency was inconclusive: 50.1 µM [activator, single point]. For `COc1ccc(S(=O)(=O)Nc2ccc3c(c2)C(=O)N([C@H](C)CO)C[C@H](C)[C@@H](CN(C)S(=O)(=O)c2ccccc2)O3)cc1`, the Potency was inconclusive: 50.1 µM [activator, single point]. With `Cc1cc(C)cc(NC(=O)c2ccc(Cn3nc(C)c(Cl)c3C)o2)c1` the Potency was inconclusive: 39.8 µM [activator, single point]. With `COc1ccccc1-c1sc2cc3c(cc2c1C#Cc1cncn1C)OCO3` the Potency was inconclusive: 35.5 µM [activator, single point]. With `COc1ccc(NC(=O)N(CCN2CCCC2)Cc2cc3cc(OC)c(OC)cc3[nH]c2=O)cc1` the Potency was inconclusive: 12.6 µM [activator, partial curve]. For `CCCCC[C@@H]1CCCCC[C@@H](O)C[C@@H](O)[C@@H](O)/C=C/C(=O)O1`, the Potency was inconclusive: 17.8 µM [activator, partial curve]. In the case of `COc1cccc(CSc2nc(-c3ccccc3OC)nc3c2Cc2c(CO)cnc(C)c2O3)c1`, the Potency is reported as inconclusive: 50.1 µM [activator, single point]. For `CC(C)=CCCC1(C)C=Cc2c(c(C)cc3c2[nH]c2cc(O)ccc23)O1` (stereo not drawn), the Potency was inconclusive: 28.2 µM [activator, single point]. In the case of `Cc1cccc(-n2c(SCC(=O)Nc3ccccc3C)nc3c(oc4ccccc43)c2=O)c1`, the Potency is reported as inconclusive: 50.1 µM [activator, single point]. For `Cc1csc(NC(=O)C(C)Oc2ccc(Br)cc2)n1` (stereo not drawn), the Potency was “inactive”. With `O=C(O)CCc1ncc(C(F)(F)F)cc1Cl` the Potency was inconclusive: 11.2 µM [activator, single point]. In the case of `CCOC(=O)[C@]12CCCC3=C1N(CCC3)C(=O)[C@@H](CC(=O)NCc1cccc3ccccc13)C2`, the Potency is reported as “inactive”. In the case of `COc1cccc(S(=O)(=O)NCc2ccc(C(=O)NCc3ccco3)cc2)c1`, the Potency is reported as inconclusive: 17.8 µM [activator, partial curve, poor fit]. In the case of `CCOc1ccc(OCCCC(=O)NCCc2ccc(OC)cc2)cc1`, the Potency is reported as “inactive”. For `Cc1ccc(NC(=O)COCc2cc(-c3cccs3)on2)cc1Cl`, the Potency was “inactive”. With `O=C1c2ccc3c4c(ccc(c24)C(=O)N1c1ccc2ccccc2c1)CC3` the Potency was inconclusive: 10 µM [activator, partial curve, poor fit]. With `CCOC(=O)Cc1c(C)nc2c(-c3cccc(Br)c3)cnn2c1C` the Potency was “inactive”. In the case of `N#Cc1nc(-c2ccc(Cl)cc2)oc1NCCc1ccccn1`, the Potency is reported as “inactive”. In the case of `CCOc1cc(-c2nnc(SCC(=O)NCCCOC)nc2-c2ccc(OC)c(OCC)c2)ccc1OC`, the Potency is reported as inconclusive: 39.8 µM [activator, single point]. With `Fc1ccc(NC(=S)Nc2ccc(F)c(Cl)c2)cc1Cl` the Potency was “inactive”.
